From the RNAGym collection of RNA variant scans (doi:10.7554/elife.90254)
Read counts are not given, so values of variants with three or more changes are uncertain.

B1: LINE1-mini (parent)
chain: GGCAGAGCUCAACACAGCGUGGCAAAGUGGCUGUGGCUAGACUGCC

Variants of: B1
Experiment: self-cleavage, relative activity (ratio to wild type); higher = more cleavage; in vitro, sequencing; the parent is a self-cleaving ribozyme
For G22C C37A U38G, the self-cleavage was 0.01. Variant G22C G27A A39U has a self-cleavage of 1.32. G22C C23A G30C G36A gave a self-cleavage of 0.14. In the case of G21U G27C G40C, the self-cleavage is reported as 0.2. Variant G21U A41G U43G C45A has a self-cleavage of 0.06. G22A A26G G40C showed a self-cleavage of 0.04. Work on G22A A26G G40U yielded a self-cleavage of 0.15. For G22A G29A G35C A39G, the self-cleavage was 0.04. Work on G21C A25U U43C G44U yielded a self-cleavage of 0.08. G21U C45U C46U showed a self-cleavage of 2.46. In the case of G22A A24C U32G G40A A41U, the self-cleavage is reported as 0.12. With G22A U43C C45U the self-cleavage was 0.31. For G21U A39U C46U, the self-cleavage was 0.88. In the case of G21U U28C U34C U38G, the self-cleavage is reported as 0. With G21C A41U C42U the self-cleavage was 0.14. In the case of G22A G35U G44A, the self-cleavage is reported as 0.9. G21U A41U C46A gave a self-cleavage of 2.15. For G21C G30A A41G, the self-cleavage was 0.21. Variant G22A G36A C42A has a self-cleavage of 0.09. Work on G21U A25U C46A yielded a self-cleavage of 0.65. For G21C A26C U28A C37U C42U, the self-cleavage was 0.01. For G22C C23G A24C, the self-cleavage was 0.28. With G22C C31U A39C C45U the self-cleavage was 0.02. G21C A25U A26C U38C showed a self-cleavage of 0.56. In the case of G21U G30C G40C, the self-cleavage is reported as 0.09. In the case of G21C C31U C45U, the self-cleavage is reported as 0.06. G21U G22C A39G gave a self-cleavage of 0.08. G22C A39C A41G gave a self-cleavage of 0.03. Variant G21U U28A U38C has a self-cleavage of 0.2. For G22A A25U G36U, the self-cleavage was 0.02. G22A C31U C45A gave a self-cleavage of 0.14. With G22A A24G G44A the self-cleavage was 0.2. In the case of G21C A24U G40A A41U, the self-cleavage is reported as 0.25. For G22A A24G C46U, the self-cleavage was 0.41. Work on G21U C31G C42U yielded a self-cleavage of 0.02. In the case of G21A U28C G35U G40C, the self-cleavage is reported as 0.02. Work on G21U A25G G33C G36U U38C yielded a self-cleavage of 0.02. With G21C C23A A26G the self-cleavage was 0.42. For G21C A24G A26U U28G C42G, the self-cleavage was 0.02. G21U A26U C42G gave a self-cleavage of 0.07. G21C G29A C37U gave a self-cleavage of 0.02. For G21U G35C U43C, the self-cleavage was 0.05. In the case of G21U C23U G36U C37G, the self-cleavage is reported as 0.02. Work on G21U A24G G27C C31U G36A C37A yielded a self-cleavage of 0.09. With G22A C37A G40A the self-cleavage was 0.03. G21U U28A G29A gave a self-cleavage of 0.53. G21A G29U G30C C31G G35U showed a self-cleavage of 0.02. Variant G22A U32A U34A C42A has a self-cleavage of 0.11. For G21U C31G G44U, the self-cleavage was 0.03. G21U G40C C42U showed a self-cleavage of 0.02. With G22A A25G C37A G44U C45G the self-cleavage was 0.04. Work on G22A G29U C46G yielded a self-cleavage of 1.03. With G21C C23G C37U the self-cleavage was 0.04. G22C C23U A24C C37U C46U gave a self-cleavage of 0.03. Work on G21C C23G A24C U32A yielded a self-cleavage of 0.01. With G21U G29U G36A the self-cleavage was 0.13. G21U G22C C23A A26C C46A showed a self-cleavage of 0.66. G22A A24C A25C gave a self-cleavage of 0.97. G22A G27A G35C C45U showed a self-cleavage of 0.11. G21A U28G U34A U38G C45G showed a self-cleavage of 0.04. Variant G21U U34A A39C G40U has a self-cleavage of 0.03. Variant G22A C37A C46G has a self-cleavage of 0.04. In the case of G21C A24U G40U C45A, the self-cleavage is reported as 0.04. Variant G21U G22U C23A G29U U38C C45U C46A has a self-cleavage of 0.05. In the case of G21U A24C A26C G30A, the self-cleavage is reported as 0.44. With G21U G36U G44A the self-cleavage was 0.03. G21U G36U G44U gave a self-cleavage of 0.41. G21U G29C G30U showed a self-cleavage of 0.31. With G22C A26G G30U C31A U34G the self-cleavage was 0.05. With G21C C23U C31G U32A the self-cleavage was 0.03. With G21C C37U G40U C45U C46U the self-cleavage was 0.02. G21C A25G G33C G35A G40C G44A gave a self-cleavage of 0.01. With G21C G40U G44C the self-cleavage was 0.08. Work on G21C A25C G27U G33C yielded a self-cleavage of 0.02. In the case of G21U U28A A41U, the self-cleavage is reported as 0.27. Work on G21U G22U C45G yielded a self-cleavage of 0.75. With G21C A25C G27C G35A U43C the self-cleavage was 0.03. Work on G21U G35C C46U yielded a self-cleavage of 0.06. G22A G30C U43A showed a self-cleavage of 0.02. With G22A A24C U32G G40C the self-cleavage was 0.02. In the case of G21U G33A G35U G36A, the self-cleavage is reported as 0.25. For G21C A24U A25U U43C, the self-cleavage was 0.08. With G22A A39U C46G the self-cleavage was 0.63. In the case of G21C U34A G40U, the self-cleavage is reported as 0.01. Work on G21C U28G C37A C46U yielded a self-cleavage of 0.01. G22A U28C C31G G33C A39G C42A gave a self-cleavage of 0.08. Variant G22C A39U C45U has a self-cleavage of 0.61. Work on G21U A24U C31G yielded a self-cleavage of 0.26. Work on G21U C23G C42U yielded a self-cleavage of 0.82. With G22C A24U G30C the self-cleavage was 0.89. G22A U28G G40U C46A showed a self-cleavage of 0.23. G21U U34C U43A gave a self-cleavage of 0.02. Work on G22C C31U C45G yielded a self-cleavage of 0.08. Variant G22A A25G U43A has a self-cleavage of 0.1. Variant G21C A24G U34C C45A has a self-cleavage of 0.07. In the case of G22A U28G G30C, the self-cleavage is reported as 0.11. G21C A24U A39U gave a self-cleavage of 0.44. For G21U A39G C46G, the self-cleavage was 0.05. Work on G21C G29A G35U yielded a self-cleavage of 1.02. With G21U G30U C37G the self-cleavage was 0.03. With G21C G29C G33C the self-cleavage was 0.42. With G21C U32G G36A the self-cleavage was 0.05. G22C C31A U32C C42A gave a self-cleavage of 0.01. In the case of G21A G30A G40C U43G, the self-cleavage is reported as 1.07. In the case of G22A G29U C31A, the self-cleavage is reported as 0.35. G22C A25U A39G G44A showed a self-cleavage of 0.33. For G21U A26G G29C C46A, the self-cleavage was 0.58. With G21U C23U U32A the self-cleavage was 0.19. In the case of G21C G29U G35C G40U, the self-cleavage is reported as 0.03. G21C A26G U34G gave a self-cleavage of 0.13. Work on G21U G27C G33A yielded a self-cleavage of 0.09. Variant G21U G27A C37U has a self-cleavage of 0.04. With G21A U34C G35U G40U the self-cleavage was 0.02. Variant G21U G36A A41U C42G U43G has a self-cleavage of 0.26. Work on G22A C23A U28C yielded a self-cleavage of 0.33. G22A A41C G44A gave a self-cleavage of 0.09. With G21U G36U U38C the self-cleavage was 0.02. With G21C G33C C45G the self-cleavage was 0.06. G22A G36A A39G gave a self-cleavage of 0.09. For G21U C23U G30C U38C C45A, the self-cleavage was 0.03. G22C C23U U38C C42A showed a self-cleavage of 0.02. G22A A25C G27U G36U U43A G44U showed a self-cleavage of 0.04. Work on G22A C23U A39C yielded a self-cleavage of 0.04. With G21C U28A C37A the self-cleavage was 0.03. Work on G21U A24U C45U yielded a self-cleavage of 0.35. G22C C23G G35U showed a self-cleavage of 0.02. In the case of G22A G27U U34A C37A, the self-cleavage is reported as 0.05. G21C C23A G30U G35C gave a self-cleavage of 0.03. In the case of G21U G35A U38G, the self-cleavage is reported as 0.03. G21A G29C A39C gave a self-cleavage of 0.02. In the case of G21C C23G G30C, the self-cleavage is reported as 2.05. G22C C23A C46A gave a self-cleavage of 0.2. G22A G27C C37U G40C G44A showed a self-cleavage of 0.01. Variant G21U G27A G36C C37G C45G has a self-cleavage of 0.02. G22A C37A A39G G40A showed a self-cleavage of 0.02. For G21C C37A G44U, the self-cleavage was 0.03. For G21C C37A G44C, the self-cleavage was 0.07. G21C A25C U38C showed a self-cleavage of 0.35. Work on G21U A26U A41C U43G yielded a self-cleavage of 0.44. Variant G21C C23A G27A C46U has a self-cleavage of 2.02. G22A A26C G44A gave a self-cleavage of 0.34. For G22A C42A C46G, the self-cleavage was 0.29. G21C G27A G40U gave a self-cleavage of 0.38. For G21A G36U A39G, the self-cleavage was 0.01. Variant G22A A25U C46U has a self-cleavage of 1.64. G22C C31A U38G gave a self-cleavage of 0.01. With G21C A24G U34A G40U the self-cleavage was 0.03. With G21U A25G G27U G40C A41U the self-cleavage was 0.1. G21U A25G U32C gave a self-cleavage of 0.05. Work on G21U A24C A41C yielded a self-cleavage of 0.09. Variant G21A G36A C42A C45A has a self-cleavage of 0.12. G21U C23G G30A showed a self-cleavage of 1.26. In the case of G22A G35U A39G, the self-cleavage is reported as 0.05. With G21C G29U A39C G44U the self-cleavage was 0.04. G21U C23A G35C C45U showed a self-cleavage of 0.04. In the case of G21U U32G G44U C45G, the self-cleavage is reported as 0.07. With G22A G27C G40U the self-cleavage was 0.38. Work on G21U U34C G36U C42G yielded a self-cleavage of 0.14. With G22A G29A C42G the self-cleavage was 0.02. Work on G21A U34C G44A yielded a self-cleavage of 0.06. With G22A G44U C46A the self-cleavage was 0.12. G21C C23G C45G C46G gave a self-cleavage of 0.26. Work on G21U G27C U32G C45A yielded a self-cleavage of 0.16. For G21C U32C C46U, the self-cleavage was 0.73. G21U G36A C45G showed a self-cleavage of 0.05. G21C G29C C46A showed a self-cleavage of 0.88. For G21U C23U G40A, the self-cleavage was 0.5.
